Assay results from article PMC4336329 (PLoS ONE, 2015).
Screen size: about 310,000 compounds; about 14,000 (4.5%) showed an effect of 50% or more. Effects have a minus sign here. The list shows a part of the results.

What follows are compounds tested against human ether-à-go-go-related gene (hERG) potassium channel (human, UniProt Q12809) (assay: primary screen, population patch clamp on CHO cells stably expressing hERG).
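Further: peak tail current of the secondary pulse compared with the same well before compound.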

human ether-à-go-go-related gene (hERG) potassium channel, sequence (Q12809 whole entry, looked up): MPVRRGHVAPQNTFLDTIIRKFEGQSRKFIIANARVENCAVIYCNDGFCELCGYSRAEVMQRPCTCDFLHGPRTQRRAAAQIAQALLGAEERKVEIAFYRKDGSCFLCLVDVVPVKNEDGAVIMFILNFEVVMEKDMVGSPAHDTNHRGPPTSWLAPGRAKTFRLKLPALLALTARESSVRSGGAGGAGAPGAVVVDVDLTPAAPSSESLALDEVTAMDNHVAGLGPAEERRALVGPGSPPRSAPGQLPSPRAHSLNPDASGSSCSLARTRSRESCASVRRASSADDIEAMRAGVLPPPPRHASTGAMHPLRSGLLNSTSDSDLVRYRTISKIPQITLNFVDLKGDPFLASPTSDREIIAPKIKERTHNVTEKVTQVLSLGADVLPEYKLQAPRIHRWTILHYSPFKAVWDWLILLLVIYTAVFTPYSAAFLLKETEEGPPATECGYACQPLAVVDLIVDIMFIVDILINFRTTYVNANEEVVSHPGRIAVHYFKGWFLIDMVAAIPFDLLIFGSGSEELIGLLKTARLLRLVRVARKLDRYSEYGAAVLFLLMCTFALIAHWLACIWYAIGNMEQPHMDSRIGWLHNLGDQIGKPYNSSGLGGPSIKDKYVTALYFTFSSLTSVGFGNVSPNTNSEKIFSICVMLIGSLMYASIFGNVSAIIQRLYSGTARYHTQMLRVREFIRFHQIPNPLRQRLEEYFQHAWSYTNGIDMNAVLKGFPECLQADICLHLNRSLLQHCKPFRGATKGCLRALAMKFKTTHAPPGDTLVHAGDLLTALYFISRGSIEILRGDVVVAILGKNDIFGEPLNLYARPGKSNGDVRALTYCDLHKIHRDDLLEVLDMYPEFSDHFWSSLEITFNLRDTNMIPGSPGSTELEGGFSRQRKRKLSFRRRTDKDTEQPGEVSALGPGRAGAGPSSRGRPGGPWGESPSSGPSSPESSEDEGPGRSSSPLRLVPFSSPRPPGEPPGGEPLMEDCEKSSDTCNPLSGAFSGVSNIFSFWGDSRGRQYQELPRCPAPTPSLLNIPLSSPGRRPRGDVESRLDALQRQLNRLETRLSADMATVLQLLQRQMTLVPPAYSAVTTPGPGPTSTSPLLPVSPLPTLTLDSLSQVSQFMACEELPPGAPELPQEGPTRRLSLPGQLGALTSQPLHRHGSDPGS

Compound | hERG current change (%, negative = inhibition) at 10uM [%]
O=C(Cc1coc(-c2ccc(F)cc2)n1)N1CCOCC1 | -0.74
C#CCOCCOCCOCCNc1nc(N2CCN(C(=O)C(Cc3ccc(O)cc3)n3cc(C(N)CC(C)C)nn3)CC2)nc(N2CCN(C(=O)C(Cc3ccc(O)cc3)n3cc(C(N)C(C)CC)nn3)CC2)n1.Cl (stereo not shown) | 10.2
CC(C)CCN1C(=O)CC(NNC(=O)c2ccc(S(=O)(=O)N3CCCC3)cc2)C1=O (stereo not shown) | -9.87
CCN(CC)c1nc(N2CCN(C)CC2)nc2ccccc12.Cl | -44.3
Clc1ccc(-n2nnnc2-c2ccccc2)cc1Cl | -7.94
O=Cc1c(NCc2ccccc2Cl)c2ccccc2[nH]c1=O | -1.39
CCOc1cc(/C=C2/C(=N)N3OC(C)=CC3=NC2=O)ccc1OC | 15.3
CNC(=S)NC1CC2CCCC(C1)N2Cc1ccco1 (stereo not shown) | 6.44
Cc1nc2ncnn2c(C)c1CCC(=O)N1CCN(c2ccccn2)CC1 | -33.3
O=C(c1ccc(Cl)c(S(=O)(=O)N2CCOCC2)c1)N1CCCCC1 | 7.04
CCc1ccc2c(c1)[C@]1(C(=O)N2)[C@@H]2C(=O)N(Cc3ccccc3)C(=O)[C@@H]2[C@@H]2CCCN21 | 9.89
O=C1NC2(CCCCCC2)C(=O)N1Cc1ccc(Cl)cc1Cl | 4.76
CC(C(=O)NCc1ccco1)n1ccc2cc(S(=O)(=O)N3CCCCC3)ccc21 (stereo not shown) | -1.47
Cc1cccc(NC(=O)C2C(c3ccccc3)C2(Cl)Cl)c1C (stereo not shown) | 12.8
Cc1cc(C)nc(/N=C(/NC(=O)c2ccccc2)Nc2ccccc2)n1 | 3.93
CCOC(=O)C1(CC2CC2)CCN(Cc2cc(Cl)c(O)c(OC)c2)CC1 | -57.1
COc1ccc(OC)c(C2NC(=S)NC(C)=C2C(=O)Nc2ccccn2)c1 (stereo not shown) | 0.661
O=c1cc(CN2CCN(C/C=C/c3ccccc3)CC2)c2cc(O)c(-c3ccccc3)cc2o1 | 11.6
CCOc1ccc(CCNC(=O)C(C)N2C(=O)CC(C)(C)Sc3ccccc32)cc1 (stereo not shown) | -6.26
C(C#CCCCCCCCCC[n+]1ccccc1)#CCCCCCCCCC[n+]1ccccc1.Cc1ccc(S(=O)(=O)O)cc1 | -24.1
Cc1[nH]c2c(ccc3ccccc32)c1C1C(CCN)C1(C)C (stereo not shown) | 0.108
COc1ccc(N=C2SC(CC(=O)Nc3ccccc3)C(=O)N2CCc2ccccn2)cc1 (stereo not shown) | -32.6

Compound | hERG current change (%, negative = inhibition) at 10uM [%]
COc1ccc(OC)c(Nc2ncnc3sc(-c4ccccc4)cc23)c1 | 13.8
Cc1nn(C)c(C)c1S(=O)(=O)N(CC(=O)N1CCc2ccccc21)c1ccc(C(C)C)cc1 | -0.0857
CCn1c(Cc2ccc(OC)cc2)nnc1SCC(=O)Nc1cccc(C(=O)OC)c1 | -33.7
Cc1cc(C(=O)N2CCCC(CO)(Cc3ccc(F)cc3)C2)c(C)o1 (stereo not shown) | -6.38
CC1CN(C(=O)C(C)Sc2nc3ccccc3s2)CC(C)O1 (stereo not shown) | 1.01
CC(C)Cc1nc2oc3c(NCC4CCCO4)ncnc3c2c2c1CCC2 (stereo not shown) | -35.8
COc1cc(NC(=O)c2cnc(N)s2)cc(C(=O)Nc2cccc(C(F)(F)F)c2)c1 | -26
FC(F)(F)c1cccc(-c2nc3nc(Cl)c(Cl)nc3[nH]2)c1 | 30.4
COC(=O)CN(c1ccccc1OC)S(=O)(=O)c1ccccc1 | 1.9
O=C(O)C1CCCN1S(=O)(=O)c1cccc(S(=O)(=O)N2CCCC2C(=O)O)c1 (stereo not shown) | 8.66
CC(=O)N(C)c1ccc(NC(=O)/C=C/c2ccccc2Cl)cc1 | 2
Cn1ncc(Cl)c1C(=O)Nc1cccnc1 | 23.9
Cn1c(N2CCOCC2)nc(-c2ccccc2)c1-c1ccccc1 | -41.9
CN(C)S(=O)(=O)N1CCCC(C(=O)c2ccc(-c3ccccc3)c(F)c2)C1 (stereo not shown) | 7.39
N#Cc1cc([N+](=O)[O-])ccc1NC(=O)COC(=O)CC1CCCC1 | -25.1
N#C/C(=C\c1cccc(OC(=O)c2cccs2)c1)C(N)=O | -6.23
Cc1ccc(C(=O)CSc2nnc(CNc3nc(-c4ccccc4)cs3)n2C)cc1 | -9.06
Cc1ccc(NC(=O)C(c2ccccc2)N2CCN(C(=O)c3ccco3)CC2)cc1Cl (stereo not shown) | -21.3
COc1cccc(-n2c(C)c3c(OC)cccc(=O)c3c2C)c1 | -11.8
CC(O)c1c(OCc2ccccc2)ncnc1OCc1ccccc1 (stereo not shown) | -15.5
O=C(NCc1cccs1)C1CC(O)CN1C(=O)Nc1ccccc1 (stereo not shown) | 19.2
O=C(Nc1ccc(F)cc1)c1sc2cc(C(F)(F)F)cnc2c1-c1cccs1 | 5.64

Compound | hERG current change (%, negative = inhibition) at 10uM [%]
CC1(C)CC(=O)C(=Cc2cn(CCC#N)nc2-c2ccc(F)cc2)C(=O)C1 | 4.1
CCOC(=O)C1CN(S(=O)(=O)c2ccccc2)C1 | -0.886
C/C(=N/NC(=O)Cc1cccs1)c1ccco1 | 12.5
CC(C)Oc1ccc(C(=O)NC2CCSc3ccccc32)cc1 (stereo not shown) | 19.5
CN(C(=O)c1cc2ccccc2oc1=O)C1(C)CCS(=O)(=O)C1 (stereo not shown) | 9.15
COc1ccc(N(CC(=O)Nc2cccc([N+](=O)[O-])c2C)S(C)(=O)=O)cc1OC | -7.79
O=C(NNC(=O)c1ccccc1[N+](=O)[O-])Nc1ccc(Cl)cc1 | 12.1
CCOC(=O)N1CCC(N2C(=O)c3ccc(C(=O)O)cc3C2=O)CC1 | 9.66
Nc1cc(N2CCNCC2)c([N+](=O)[O-])cc1Cl | 0.16
COC(=O)c1c(C)[nH]c(C(=O)/C=C/c2ccc(C)cc2)c1C | 4.43
Cc1ccc2nc(N3CCN(C(=O)c4cccs4)CC3)c(C#N)cc2c1 | -76.9
Cc1ccc(S(=O)(=O)N/N=C\c2cn(CC(N)=O)c3ccccc23)cc1C | 5.21
O=C(COC(=O)/C=C/c1ccc(F)cc1)Nc1cc(C(F)(F)F)ccc1N1CCOCC1 | -3.43
CSc1cccc(CN2CCCC(CNC(=O)c3ccco3)C2)c1 (stereo not shown) | -91.9
O=C(Cc1cccs1)Nc1nnc(SCc2ccc(Br)cc2)s1 | 0.48
CC(=O)Nc1ccc(N(C(=O)CNC(=O)c2ccco2)C(C(=O)NC2CCCC2)c2ccco2)cc1 (stereo not shown) | 3.72
CC(C)c1ccc(NC(=O)CN2C(=O)c3ccccc3S2(=O)=O)cc1 | 9.31
CCCOC(=O)c1c(N)n(Cc2cccs2)c2nc3ccccc3nc12 | -14.4
CCOC(=O)N1CCN(S(=O)(=O)c2ccc(C)cc2)C1c1ccccc1 (stereo not shown) | -24
O=C(NCc1cc(C(F)(F)F)cc(C(F)(F)F)c1)C12CN(Cc3ccccc3)CC1C(c1cccc([N+](=O)[O-])c1)=NO2 (stereo not shown) | -5.93
O=C1CN(c2ccccc2)C(=S)N1C(=O)c1ccc(Br)cc1 | 9.72
Cc1ccc2cc(S(=O)(=O)NCCC(=O)O)ccc2c1 | -2.04

Compound | hERG current change (%, negative = inhibition) at 10uM [%]
C/C=C\C(=O)Nc1cccc(C2=NOC3(C2)C[C@@H](C(N)=O)N(C(=O)C2(C)CC2)C3)c1 (stereo partly shown) | 1.48
COc1ccc2[nH]c(=O)c(CN(C(=O)c3ccco3)C(C)C)cc2c1 | 0.433
O=C(CNC(=O)c1ccco1)Nc1ccc(OC(F)F)cc1 | 19.6
CC(=O)Oc1ccc(N(C(C)=O)S(=O)(=O)c2ccc(C)cc2C)c2ccccc12 | 17
CN1c2ccc([N+](=O)[O-])cc2N(C)C1(C)c1ccccc1 (stereo not shown) | 18.8
COc1ccccc1Nc1cc(N2CCOCC2)c2nonc2c1[N+](=O)[O-] | 12
O=C(NC1=NCCS1)c1ccc(Cl)cc1 | 14.7
CC(OC(=O)CCN=C1NS(=O)(=O)c2ccccc21)C(=O)Nc1ccc(N(C)C)cc1 (stereo not shown) | 0.875
Nc1nc2n(n1)C(=O)CC(c1ccccc1[N+](=O)[O-])N2 (stereo not shown) | 41.7
Cc1cc(NC(=O)CSc2ccccn2)no1 | 11.3
CCN1CCCC1CNC(=O)c1ccc(N2CCOCC2)c(NS(=O)(=O)c2ccc(OC)cc2)c1 (stereo not shown) | -24.4
Cc1cc(NC(=O)c2ccc(COc3ccccc3Cl)o2)no1 | 9.63
CC1CCCCN1CC(=O)c1ccc2cc[nH]c2c1 (stereo not shown) | 16.1
CC(C)c1c(Cl)c(O)c(-c2ccccc2)c(=O)n1-c1ccc(F)cc1 | 11.1
CCOc1cccc2cc(C(C)=O)oc12 | 31.4
O=C(CNc1ccc2c(c1)OCO2)N/N=C\c1ccccc1Cl | 3.98
CC(=O)c1nnn(-c2cccc(C#N)c2)c1C | 21.6
O=C(NCc1cccnc1)c1nc(-c2ccccc2)n(-c2ccccc2)n1 | -14.7
O=C(COC(=O)C1=Cc2ccccc2OC1)NCc1ccco1 | 31.1
